About 16,000 (7.3%) of roughly 220,000 compounds were called active. The inconclusive results got no clear call from the source; some entries with a clear call stand among them for comparison. Calls follow the shape of the dose curve; as a rule, active = well fitted inhibition curve with a large enough effect (not every such curve was filed as active); inconclusive = small, poorly fitted or top-dose-only effect, or another doubt; inactive = no such curve, though single readings can be large or run the other way. No potency is given beside an inconclusive call; the fits are too rough.
Biological target: Aldehyde dehydrogenase 1A1 (Homo sapiens) (UniProt P00352)
UniProt P00352, sequence (P00352 whole entry, looked up): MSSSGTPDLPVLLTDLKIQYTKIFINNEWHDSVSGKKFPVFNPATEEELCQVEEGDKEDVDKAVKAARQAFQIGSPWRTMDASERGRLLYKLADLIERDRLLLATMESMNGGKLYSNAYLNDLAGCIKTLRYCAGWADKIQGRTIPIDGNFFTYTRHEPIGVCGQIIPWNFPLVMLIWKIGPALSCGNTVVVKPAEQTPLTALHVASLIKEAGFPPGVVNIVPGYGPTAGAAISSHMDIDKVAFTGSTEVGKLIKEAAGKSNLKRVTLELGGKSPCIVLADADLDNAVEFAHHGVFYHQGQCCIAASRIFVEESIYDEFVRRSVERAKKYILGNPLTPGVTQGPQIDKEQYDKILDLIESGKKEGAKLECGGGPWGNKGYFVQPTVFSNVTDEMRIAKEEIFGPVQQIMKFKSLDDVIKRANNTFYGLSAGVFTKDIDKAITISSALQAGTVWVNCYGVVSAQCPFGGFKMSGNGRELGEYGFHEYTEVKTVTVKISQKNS
Assay: qHTS Assay for Inhibitors of Aldehyde Dehydrogenase 1 (ALDH1A1)
Settings: Purified ALDH1A1, NADH fluorescence, propionaldehyde substrate; series mostly up to 75.3 µM
Potency is read from the fitted curve at half-maximal effect; tags tell the direction and shape of the fitted curve.

| SMILES | Potency |
| --- | --- |
| Cc1cc(C)c2cc(CN(CCCN(C)C)C(=S)NCc3ccccc3)c(=O)[nH]c2c1 | inconclusive [inhibitor, single point] |
| O=C(c1ccc(CSc2ccc(Cl)cc2)cc1)N1CCCC1 | inconclusive [inhibitor, single point] |
| CCCCc1nc2sc3c(c2c(=O)[nH]1)CCC3 | inconclusive [inhibitor, partial curve] |
| COc1cc2c(Nc3ccc(NC(=O)c4ccccc4)cc3)ncnc2cc1OCCCN1CCOCC1 | inconclusive [inhibitor, single point] |
| COCCn1c(=S)[nH]c2cc(C(=O)N3CCN(c4ccc(F)cc4)CC3)ccc2c1=O | inconclusive [inhibitor, single point] |
| CC1(C)NC(=O)N(CC(O)COc2ccccc2[N+](=O)[O-])C1=O (stereo not drawn) | inconclusive [inhibitor, single point] |
| COCCN(CCOC)S(=O)(=O)c1ccc(C(=O)Nc2nc(-c3ccccc3)c(C(=O)c3ccccc3)s2)cc1 | inconclusive [inhibitor, partial curve] |
| COC(=O)CSc1c(-c2ccccc2)c2cc(Cl)ccc2[nH]c1=O | inconclusive [inhibitor, single point] |
| COc1ccccc1-c1nnc(SCC(=O)Nc2ccc(Cl)cc2Cl)o1 | inactive |
| O=c1c(-c2cccs2)nc2cnc(N3CCNCC3)nc2n1-c1ccccc1 | inconclusive [inhibitor, single point] |
| CCCCN=C1NN=C(c2ccc(C)c(C)c2)CS1 | active: 20 µM |
| O=C1NC(c2ccncc2)Nc2sc3c(c21)CCCC3 (stereo not drawn) | inconclusive [inhibitor, partial curve] |
| CCNC(=S)NNC(=O)c1ccccc1OC(F)F | inactive |
| COC(=O)c1ccc(S(=O)(=O)NCCSc2nnc3c4ccccc4n(C)c3n2)cc1 | active: 15.8 µM |
| O=C(Cc1ccccc1)c1c[nH]c(C(=O)NCc2ccncc2)c1 | inconclusive [inhibitor, single point] |
| O=C(NCc1ccccc1)C1=C[C@@H](c2coc3ccccc3c2=O)C[C@@H](OCc2ccc(CO)cc2)O1 | active: 7.94 µM |
| CCC(C)[C@H](NC(=O)OC(C)(C)C)C(=O)N/N=C/c1ccc2cc(OC)ccc2n1 (stereo partly drawn) | inconclusive [inhibitor, partial curve] |
| Cc1nn(-c2cc(N3CCCCC3)ccc2[N+](=O)[O-])c(=O)c2ccccc12 | inactive |
| CC/C=C/C#N | inactive |
| CCOc1ccc(S(=O)(=O)NCc2ccc(F)cc2)c2cccnc12 | inconclusive [inhibitor, partial curve] |
| O=C(c1ccc(F)cc1)N1CCN(C(=O)c2ccc([N+](=O)[O-])cc2)CC1 | inactive |
| COCCn1nnnc1CN(Cc1cc2cc(OC)c(OC)cc2[nH]c1=O)C1CCCC1 | inconclusive [inhibitor, partial curve] |
| Cc1ccc(S(=O)(=O)N(C)C)cc1NC(=O)COC(=O)c1c(C)noc1C | inactive |

| SMILES | Potency |
| --- | --- |
| CCN1CCN(c2ccc(S(=O)(=O)N(CC)CC)cc2[N+](=O)[O-])CC1 | inactive |
| O=C(Nc1nccs1)c1cc(S(=O)(=O)N2CCCCC2)ccc1Cl | inconclusive [inhibitor, single point] |
| C=CCOC(=O)NC(c1ccc(F)c(F)c1)C(C(=O)COC)C(=O)OC (stereo not drawn) | inactive |
| C=CCN1C(=CCO)[C@H]2C[C@H]3[C@@H]1CC[C@@]31c3ccccc3N3C=C4[C@@H]5N(/C=C/2[C@H]31)c1ccccc1[C@]51CC[C@H]2[C@H]1C[C@@H]4/C(=C/CO)N2CC=C | inactive |
| O=C(CSc1nnc(-c2ccc(S(=O)(=O)N3CCOCC3)cc2)o1)c1ccccc1F | inconclusive [inhibitor, partial curve] |
| CCOc1cc(C(=O)Nc2c(C)ccc3nsnc23)cc(OCC)c1OCC | inconclusive [inhibitor, single point] |
| O=S1(=O)CCC(NC(=S)SCCOc2ccccc2)C1 (stereo not drawn) | inconclusive [inhibitor, single point] |
| Clc1ccc(-c2noc(CSc3nnc(-c4ccncc4)n3-c3ccccc3)n2)cc1 | inactive |
| O=C(COc1ccc([N+](=O)[O-])cc1)NC(C(=O)O)C(O)c1cccc([N+](=O)[O-])c1 (stereo not drawn) | inconclusive [inhibitor, single point] |
| CCC(=O)n1nc(-c2ccco2)nc1SCc1ccccc1 | inconclusive [inhibitor, single point] |
| O=[N+]([O-])c1ccc(N2CCSCC2)cc1 | inconclusive [inhibitor, partial curve] |
| O=[N+]([O-])c1cccc(-c2n[nH]c(=S)n2Cc2ccccc2)c1 | inconclusive [inhibitor, partial curve, poor fit] |
| Cc1ccc(SCCNC(=O)CN2C(=O)c3ccccc3S2(=O)=O)cc1 | inconclusive [inhibitor, single point] |
| Cc1ccc(SCCC(=O)Nc2ccccc2C(=O)NC2CCCCC2)cc1 | inconclusive [inhibitor, single point] |
| O=C(NCc1ccc(N2CCCC2=O)cc1)Nc1ccccc1 | inactive |
| CCSc1nnc(-c2cccc(S(=O)(=O)N(CC)CC)c2)n1Cc1ccccc1 | inconclusive [inhibitor, partial curve] |
| O=C(Nc1nncs1)c1ccc(Br)c(S(=O)(=O)N2CCCC2)c1 | inconclusive [inhibitor, single point] |
| CC(=O)N1CCc2cc(C(=O)CN3CCC(C)CC3)ccc21 | active: 20 µM |
| Cc1ccc(/C=C/C(=O)Nc2cc(=O)n(C)c(=O)n2C)o1 | active: 22.4 µM |
| C=CCCC/C=C(/C)C(OCc1ccc(OC)cc1)C(CC/C=C(\C)C(N)=O)OC (stereo not drawn) | inconclusive [inhibitor, single point] |
| COc1cc(/C=N/Nc2nc(C)cc(C)n2)ccc1OC(=O)c1ccco1 | inactive |
| CN1CCN(C(=O)CCCOc2ccc(Cl)cc2Cl)CC1 | inconclusive [inhibitor, single point] |
| Cc1ccsc1C(=O)OCC(=O)N1CC(=O)Nc2ccccc21 | inconclusive [inhibitor, single point] |

| SMILES | Potency |
| --- | --- |
| O=C(Cn1c2c(sc1=O)C1c3ccccc3OCC1CS2)Nc1ccc(Cl)cc1 (stereo not drawn) | inconclusive [inhibitor, single point] |
| COc1cc2nc(C3CCC3)nc(N3CCN(c4ccccc4OC)CC3)c2cc1OC | active: 28.2 µM |
| Cn1c(=O)c2c(nc(CN3CCN(C(=O)c4ccco4)CC3)n2Cc2ccc(F)cc2)n(C)c1=O | active: 20 µM |
| O=C(NNC(=S)Nc1ccc(F)cc1)c1cccc([N+](=O)[O-])c1 | inactive |
| O=c1c2ccccc2cnn1-c1ccc(Cl)nn1 | inconclusive [inhibitor, single point] |
| CC1OC(OC2CCC3(C)C(CCC4C3CC(O)C3(C)C(C5=CC(=O)OC5)CCC43O)C2)CC(O)C1OC1CC(O)C(OC2CC(O)C(OC3OC(CO)C(O)C(O)C3O)C(C)O2)C(C)O1 (stereo not drawn) | inactive |
| CN(C)N1C(N)=C(C#N)C(c2cccc3ccccc23)C2=C1CC(c1ccccc1)CC2=O (stereo not drawn) | inconclusive [inhibitor, partial curve] |
| Cn1c(CN2CCCCC2)nc2cc([N+](=O)[O-])ccc21 | active: 11.2 µM |
| COc1ccc(Cn2c(CCC(=O)N3CCN(c4ccccn4)CC3)nc3ncccc3c2=O)cc1 | inconclusive [inhibitor, full curve] |
| CCOCCCNCc1cc(Br)ccc1OCC | inconclusive [inhibitor, single point] |
| CCOc1ccccc1C(=O)Nc1cccc(-c2nnc(-c3ccccc3)o2)c1 | inconclusive [inhibitor, single point] |
| CCOC(=O)N1CCN(S(=O)(=O)c2ccc(C(=O)Nc3ccc4c(c3)C(=O)NC4=O)cc2)CC1 | inconclusive [inhibitor, single point] |
| CC(=O)Oc1ccc2c(C)c(CC(C)O)c(=O)oc2c1 (stereo not drawn) | inconclusive [inhibitor, partial curve] |
| COc1ccccc1CNc1ncncc1-c1ccc(N(C)C)cc1 | inconclusive [inhibitor, single point] |
| CC1CCCC/C1=N\NC(=S)Nc1cccnc1 (stereo not drawn) | inconclusive [inhibitor, single point] |
| O=c1oc2ccccc2c(O)c1Cc1cc(Cl)c2cccnc2c1O | inconclusive [inhibitor, single point] |
| CCOc1ccc(C(C)C)cc1S(=O)(=O)Nc1ccc(Cl)cn1 | inconclusive [inhibitor, full curve] |
| N#Cc1c(/N=C/c2cc3ccccc3s2)sc2c1CCC2 | active: 25.1 µM |
| CC1=C(C(=O)NCc2ccco2)C2(CCC(C)CC2)OC1=O (stereo not drawn) | inconclusive [inhibitor, single point] |
| Cc1ccc(C(=O)NCc2cccs2)cc1S(=O)(=O)N1CCCCC1 | inconclusive [inhibitor, partial curve] |
| CS(=O)(=O)Oc1ccc2c(c1)O/C(=C\c1cccnc1)C2=O | active: 11.2 µM |
| COc1cccc(CC2(CO)CCCN(Cc3ccccc3-c3ccco3)C2)c1 (stereo not drawn) | inconclusive [inhibitor, full curve] |
